Consider 85 molecules from PubChem BioAssay AID1346428 (National Center for Advancing Translational Sciences (NCATS), 2018).

SMILES strings stand for the structures. Among all 48,000 compounds or so, about 1,200 (2.5%) were called active. Inconclusive results (about 2%) are left out.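 How the source made its calls: active means activation of at least 60% and not above a set upper limit (about 1 call in 100 departs from these limits); inconclusive means activation of 40% to 60%, or above that upper limit; inactive means activation under 40%.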 The list shows a part of the results.

The target in this assay is Probable G-protein coupled receptor 32 (Homo sapiens) (UniProt O75388). In words: qHTS for Agonists of Human Resolvin D1 Receptor DRV1. Further: 0% is about no effect. Conditions: CHO-K1 GPR32 beta-arrestin PathHunter luminescence, 90 min; at 76.9 µM; hits give high values; zero percent set by DMSO-only wells. A digest of the protocol: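 Luminescent readout of beta-Gal complementation quantifies ligand-induced beta-arrestin association with GPR32 in CHO-K1 cells; 90 min compound incubation at 37 °C, detection 1 h at room temperature.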
UniProt O75388, sequence (O75388 whole entry, looked up): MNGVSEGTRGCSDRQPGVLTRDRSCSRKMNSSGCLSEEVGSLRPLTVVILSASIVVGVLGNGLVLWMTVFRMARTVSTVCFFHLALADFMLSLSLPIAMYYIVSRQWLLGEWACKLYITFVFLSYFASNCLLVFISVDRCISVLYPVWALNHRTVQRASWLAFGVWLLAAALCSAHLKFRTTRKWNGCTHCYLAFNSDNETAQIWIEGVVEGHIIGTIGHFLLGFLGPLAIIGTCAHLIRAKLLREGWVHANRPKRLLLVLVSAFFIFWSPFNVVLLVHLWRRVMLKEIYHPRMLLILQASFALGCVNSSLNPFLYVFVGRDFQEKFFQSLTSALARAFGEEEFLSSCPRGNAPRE
Consider `CNCCC=C1c2ccccc2CCc2ccccc21`, for which the activation was inactive: -9.17%.

Consider `COc1ccc(C(=O)N2CCN(Cc3cc(=O)n4nc(-c5ccccc5C)sc4n3)CC2)cc1OC`, for which the activation is inactive: 8.89%. With `Cc1cccc(NC(=O)C2CCN(S(=O)(=O)c3ccc(F)cc3)CC2)c1C`, the activation was inactive: 24%. The value for `CCCCNC(=O)c1nn(-c2ccc(CC)cc2)nc1CO` was inactive: -3.88%.

In the case of `CCCn1c(=O)sc2cc(NC(=O)COc3ccc(Cl)cc3)ccc21`, the activation was inactive: 49.4%.

Regarding `CC1CCC(NC(=O)c2ccc3c(c2)N(Cc2cccc(Cl)c2)C(=O)c2ccccc2S3(=O)=O)CC1` (stereo not given), the activation was inactive: -21.1%. Consider `CCOC(=O)c1ccc(NS(=O)(=O)c2ccc3c(c2)n(C)c(=O)n3C)cc1`, for which the activation is inactive: 20.4%.

Take `CCN(CC)CC(C)CNC(=O)c1cc(-c2ccc(Br)s2)nc2ccccc12` (stereo not given): the activation was inactive: 4.86%.

As to `COc1cccc(CN(C(=O)c2oc3cc(C)ccc3c2C)C2CCS(=O)(=O)C2)c1` (stereo not given), the activation is inactive: -30.1%. As for `O=C(Nc1cc(-c2nc3ccccc3s2)ccc1Cl)c1cc2ccccc2o1`, the activation is inactive: -7.52%.

As for `CN(Cc1ccccc1)C(=O)c1ccc2c(c1)N(Cc1ccccc1F)C(=O)c1ccccc1S2(=O)=O`, the activation is inactive: -5.74%. Regarding `COc1ccc(OC)c(NC(=O)Cn2cnc3ccc(S(=O)(=O)N4CCC(C)CC4)cc3c2=O)c1`, the activation is inactive: -14.2%.

For `COc1cc(/C=C/c2nc(C#N)c(N3CCCCCC3)o2)cc(OC)c1OC`, the activation was inactive: -19.4%. The value for `O=S(=O)(Nc1ccccc1C(F)(F)F)c1ccc(N2CCCCS2(=O)=O)cc1` was inactive: 5.83%; that for `CCCOc1cccc(NC(=O)c2c(-c3ccccc3Cl)noc2C)c1` was inactive: -13.5%. For `CN(C(=O)CSc1nc2ccc(NC(=O)COc3ccc(Cl)cc3)cc2s1)c1ccccc1`, the activation is inactive: 17.2%. The value for `Cc1cccc(C)c1NC(=O)Cn1c(=O)n(Cc2ccccc2)c(=O)c2c(C)c(C(=O)N(C)C)sc21` was inactive: -1.47%; that for `CC(=O)N(Cc1cccnc1)c1nc2c(F)cc(F)cc2s1` was inactive: -22.1%; that for `Cc1ccc(-c2nc3sc(CCNS(=O)(=O)c4cc(F)ccc4F)c(C)n3n2)cc1` was inactive: 13.2%. Consider `Cc1ccc(Cl)cc1-n1c(=O)cc(N2CCN(c3ccc(F)cc3)CC2)[nH]c1=O`, for which the activation is inactive: -12%.

For `Cc1cc(C)c2oc(C(=O)Nc3ccc(S(=O)(=O)N4CCCCC4)cc3)cc(=O)c2c1`, the activation is inactive: -5.39%.

As for `Cn1c(=O)c2c(-c3ccc(Cl)cc3)n(Cc3ccccc3)cc2n(C)c1=O`, the activation is inactive: 15.5%. Take `COc1ccc(CNC(=O)CSc2nc3ccccc3nc2Cc2ccccc2)cc1`: the activation is inactive: -3.05%. In the case of `O=C(CSc1nccn1Cc1ccco1)Nc1ccc(F)cc1`, the activation was inactive: -6.46%. The value for `CCOC(=O)c1cc(S(=O)(=O)Nc2ccc(C)cc2Cl)[nH]n1` was inactive: -9.74%; that for `COc1cccc(NC(=O)C2CCC(CNS(=O)(=O)c3ccc4c(c3)CC(C)N4C(C)=O)CC2)c1` (stereo not given) was inactive: 18.5%; that for `COc1ccc(S(=O)(=O)NCCc2cc3ccc(C)c(C)c3[nH]c2=O)cc1` was inactive: 41.1%. With `COc1cccc(/C=C/c2nc(C#N)c(NCCN(C)C)o2)c1`, the activation is inactive: -10.7%. On to `COc1ccc(Cn2c(CCC(=O)NCc3cccc(Cl)c3)nc3cccnc32)cc1`, for which the activation was inactive: -14.1%. The value for `CCOC(=O)c1[nH]c(C)c(CCC(=O)NCc2ccc(N(C)C)cc2)c1C` was inactive: -23.3%; that for `Cc1ccc(NC(=O)C2CCN(S(=O)(=O)c3c(C)noc3C)CC2)c(C)c1` was inactive: -15%; that for `COc1ccc(-c2csc3nc(-c4ccccc4C)oc(=O)c23)cc1OC` was inactive: -0.175%. For `O=C(/C=C\c1ccc2c(c1)OCO2)NC1CC(=O)N(c2ccc(Cl)cc2)C1` (stereo not given), the activation is inactive: -1.79%.

With `COc1ccc(C2(Nc3cccc(C(=O)O)c3C)C(=O)c3ccccc3C2=O)cc1`, the activation is inactive: -3.37%. On to `CC(=O)N1CCOc2cc(S(=O)(=O)NCc3ccc(C)cc3)c(Cl)cc21`, for which the activation is inactive: 8.59%. The value for `CCSc1nc(-c2ccccc2OC)nc2c1Cc1c(CO)cnc(C)c1O2` was inactive: 2.07%; that for `CCOc1ccccc1NC(=O)c1cc(=O)c2ccc(C)cc2o1` was inactive: 7.65%. As to `COc1ccc(NC(=O)CSc2oc(-c3cccs3)nc2S(=O)(=O)c2ccc(C)cc2)c(OC)c1`, the activation is inactive: -9.86%. As for `O=C(Cc1cccs1)NC1CC(=O)N(c2cccc(F)c2)C1` (stereo not given), the activation was inactive: -9.39%. For the molecule `CCOC(=O)c1c(C)oc2ncnc(N3CCN(c4ccccc4F)CC3)c12`, the activation was inactive: -48.6%. With `Cc1cc(C)n2c(Nc3ccc(Cl)cc3)c(-c3ccsc3)nc2n1`, the activation was inactive: -34.2%. As for `COc1cc2nc(NCCC(C)C)n3nc(-c4ccccc4)nc3c2cc1OC`, the activation is inactive: -6.04%. Take `CCCCS(=O)(=O)c1oc(-c2cccs2)nc1S(=O)(=O)c1ccccc1`: the activation was inactive: -14%. The value for `COc1cccc(C(=O)Nc2ccc3nc(SCC(=O)N4CCOCC4)sc3c2)c1` was inactive: -11.9%. With `Cn1c(=O)n(C)c2cc(NS(=O)(=O)c3ccc(F)cc3)ccc21`, the activation is inactive: 7.69%. The value for `Cc1ccc(OCC(=O)N(c2ccc(C)cc2)S(=O)(=O)c2ccc(Cl)cc2)cc1` was inactive: -5.41%. With `Cc1ccc2c(CN3CCN(C(=O)c4ccc(F)cc4)CC3)cc(=O)oc2c1`, the activation was inactive: 6.45%. Consider `O=C(CS(=O)(=O)c1cccc2nsnc12)Nc1ccccc1`, for which the activation is inactive: 9.16%. As to `CCc1c2c(nc3ccc(OC(=O)N4CCC(N5CCCCC5)CC4)cc13)-c1cc3c(c(=O)n1C2)COC(=O)[C@]3(O)CC`, the activation is inactive: -7.11%. With `CCOc1ccccc1NC(=O)CSc1nc(=O)[nH]c2c1CCCC2`, the activation is inactive: 2.12%.

As for `CSCCC(NS(=O)(=O)c1ccc2c(c1)oc(=O)n2C)C(=O)N1CCN(c2cc(C)ccc2C)CC1` (stereo not given), the activation is inactive: -25.7%. In the case of `COc1ccc(C2CC(=O)NC(NC(=O)c3ccc(Br)cc3)=N2)c(OC)c1OC` (stereo not given), the activation was inactive: -3.6%.

On to `CC(C)(C)c1ccc(C(=O)NCCc2csc3nc(-c4ccccc4F)nn23)cc1`, for which the activation was inactive: -4.57%. For `COc1ccccc1CNC(=O)CN1C(=O)COc2ccc(S(=O)(=O)Nc3ccccc3)cc21`, the activation was inactive: -6.1%. As to `Cc1nc2ccc(S(=O)(=O)N(CC(=O)Nc3cccc(F)c3)Cc3ccccc3)cc2s1`, the activation was inactive: 16.8%. As for `CC(C)CCn1c(=O)c2sccc2n2c(CCCC(=O)NCCc3ccccc3)nnc12`, the figure is inactive: -21.7%; as for `O=C1CC(c2ccccc2)c2c(n3ncnc3[nH]c2=O)N1` (stereo not given), inactive: 3.63%. In the case of `CCc1cccc(NC(=O)Cn2c(=O)n(CC(=O)NCCc3ccccc3)c(=O)c3ccccc32)c1`, the activation is active: 81.2%. With `C[C@@H](O)[C@H](N)C(=O)O`, the activation is inactive: -1.25%. The value for `O=C(NCCc1ccc(Cl)cc1)c1ccc(CS(=O)Cc2ccccc2Cl)o1` (stereo not given) was inactive: -6.69%; that for `OC[C@H]1O[C@@H](OCCc2ccc(O)cc2)[C@H](O)[C@@H](O)[C@H]1O` was inactive: 2.72%; that for `COc1cccc(CNC(=O)c2oc3c(c2C)-c2nn(Cc4cccc(Cl)c4)cc2CC3)c1OC` was inactive: 2.96%. With `COc1ccccc1C(=O)N1CCC(c2noc(-c3ccc(S(=O)(=O)N4CCCC4)cc3)n2)CC1`, the activation is inactive: 8.97%. Turning to `CC(C)N(C)C1CCN(S(=O)(=O)c2ccc3[nH]c(=O)ccc3c2)CC1`, the activation is inactive: 15.1%.

Regarding `COc1ccc(NC(=O)Cn2c(SCc3ccc(F)cc3)nc3cccnc32)cc1OC`, the activation was inactive: 26.1%. With `Cc1cccc(NC(=O)C2CCN(c3nc4ccccc4[nH]3)CC2)c1C`, the activation is inactive: -9.38%. For the molecule `Cc1cc(C)cc(N2C(=O)CSC23C(=O)N(CC(=O)Nc2ccc(F)cc2F)c2ccccc23)c1` (stereo not given), the activation is inactive: 3.49%. `Cc1ccc(C)c(CNC(=O)CCn2cccn2)c1`: the activation is inactive: -6.5%. Turning to `O=C(Nc1ccc2nc(SCC(=O)N3CCCC3)sc2c1)c1cccc(Br)c1`, the activation was inactive: -9.32%. Consider `CCOC(=O)c1oc2c(c1C)-c1nn(Cc3c(F)cccc3Cl)cc1CC2`, for which the activation is inactive: -17.1%. In the case of `CCCCc1nn2c(=O)cc(COC(=O)c3ccc(NC(=O)CCc4ccccc4)cc3)nc2s1`, the activation was inactive: 13.9%. As for `CCOCCCN1C(=O)c2[nH]nc(-c3ccccc3O)c2C1c1ccc(CC)cc1` (stereo not given), the figure is inactive: -10.1%; as for `CCc1ccc(NC(=O)Cc2c(C(=O)O)c(C)cn2C)cc1`, inactive: -3.26%. On to `Cc1ccccc1Nc1c(-c2ccc(Br)o2)nc2ccc(Cl)cn12`, for which the activation was inactive: -12%.

`CC(C)CCNC(=O)Nc1ccc2c(c1)N(Cc1ccccc1)C(=O)c1ccccc1S2`: the activation is inactive: -20.5%.

`Cc1ccc(S(=O)(=O)CC(=O)Nc2sc3c(c2C(N)=O)CCCC3)cc1`: the activation was inactive: -17.6%. Regarding `Cc1ccc(NC(=O)CCN2CCN(CCO)CC2)cc1C`, the activation was inactive: -10.1%.

For the molecule `COc1ccc(CCNC(=O)c2ccc3c(c2)N(Cc2ccc(Cl)cc2)C(=O)c2ccccc2S3)cc1OC`, the activation is inactive: -16.2%.

For the molecule `CCOc1ccc(-c2nn(CC(=O)NC3CCCC3)c3c2cnc2ccc(C)cc23)cc1`, the activation is inactive: -9.39%. Take `COc1cc(OC)c(NC(=O)c2cc(C)nc3c2c(C)nn3-c2ccc(C)cc2)cc1Cl`: the activation is inactive: 2.62%. As for `CCN(Cc1nc(-c2ccc(OC)cc2)oc1C)S(=O)(=O)c1ccc(C)cc1`, the activation was inactive: -2.64%. `Cc1c(CCNC(=O)c2ccco2)sc2nc(-c3ccc(F)cc3)nn12`: the activation is inactive: -12.4%. As for `Cc1ccc(NC(=O)CN2CCSc3ccc(S(=O)(=O)N4CCCC4)cc32)cc1`, the activation is inactive: -13%. As for `CCCCN(CC)C(=O)c1cc2c(=O)n3cccc(C)c3nc2n1C`, the activation was inactive: -17.7%. Turning to `CCc1ccc(Oc2c(C(F)(F)F)oc3c(CN4CCC(C)CC4)c(O)ccc3c2=O)cc1`, the activation was inactive: 22.6%.
